PubChem BioAssay AID1345082 (National Center for Advancing Translational Sciences (NCATS), 2018)
In all, about 94,000 compounds went through this assay and about 4,000 (4.3%) were called active. Inconclusive results, whose numbers are uncertain, are shown with a selection of clear calls. The call rests on the fitted dose curve; in most records, active means well fitted inhibition curve with a large enough effect; inconclusive means small, poorly fitted or top-dose-only effect; inactive means no such curve, though single readings can be large or run the other way. Potencies beside an inconclusive call are fits to weak or partial responses and may not hold up.
Potency means the concentration at half of the fitted maximal effect; tags describe the fitted curve by direction and shape.

Assay: Cytotoxic Profiling in NIH 3T3 Cell Line of Diverse Libraries Using Quantitative High-Throughput Screening; further: nearly all actives have a fitted effect of over 55% in size
Conditions: NIH 3T3 viability, CellTiter-Glo ATP luminescence, 48-72 h; series mostly up to 96.7 µM
Procedure, shortened: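 Luminescent ATP readout (CellTiter-Glo, 10 min RT) after 48 or 72 hr compound exposure of NIH 3T3 cells seeded at 400 cells/well in 1536-well format; quantitative HTS.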
With `Cc1nc(-c2ccccc2)cc([C@H]2CN3CC[C@H]2C[C@@H]3CNC(=O)c2ccco2)n1` the Potency was inconclusive: 100 µM [inhibitor, partial curve, poor fit].
With `COc1ccccc1NC(=O)N1C[C@@H]2C[C@H](C1)c1c(C3CCCCC3)ccc(=O)n1C2` the Potency was inconclusive: 70.8 µM [inhibitor, partial curve, poor fit].
In the case of `CC(=O)c1cccc(NC(=O)OC[C@H]2C[C@@H]3CCN2C[C@@H]3c2cc(C3CCCC3)nc(C)n2)c1`, the Potency is reported as inconclusive: 39.8 µM [inhibitor, full curve, poor fit].
In the case of `C=C[C@H]1CN2CC[C@H]1C[C@@H]2CNCc1ccc(C(C)C)cc1`, the Potency is reported as inconclusive: 89.1 µM [inhibitor, partial curve, poor fit].
For `COc1cc2c(cc1OCc1ccccc1)N(C(=O)c1c[nH]c3ccccc13)CC21CCN(C)CC1`, the Potency was active: 20 µM.
For `C#C[C@H]1CN2CC[C@H]1C[C@@H]2CNC(=O)c1ccc(N(C)C)cc1`, the Potency was “inactive”.
In the case of `O=C(CCc1nc2ccccc2s1)N1[C@H]2CC[C@@H]1c1cnc(-c3ccccc3)nc1C2`, the Potency is reported as “inactive”.
With `CCCNC(=O)OC[C@H]1C[C@@H]2CCN1C[C@@H]2c1cc(-c2ccc(F)cc2)nc(C)n1` the Potency was inconclusive: 89.1 µM [inhibitor, partial curve, poor fit].
With `Cc1ccccc1S(=O)(=O)N1[C@H]2CC[C@@H]1c1cnc(-c3ccccc3)nc1C2` the Potency was inconclusive: 39.8 µM [inhibitor, partial curve].
In the case of `O=C(c1ccccc1)N1C[C@@H]2C[C@H](C1)c1c(/C=C/c3ccc(Cl)cc3)ccc(=O)n1C2`, the Potency is reported as inconclusive: 89.1 µM [inhibitor, partial curve].
For `O=C(c1ccsc1)N1[C@H]2CC[C@@H]1c1cnc(-c3ccc(F)cc3)nc1C2`, the Potency was “inactive”.
In the case of `CN1CCNc2cc(Nc3ccncc3)ncc2C1`, the Potency is reported as inconclusive: 112 µM [inhibitor, partial curve].
With `Cc1nc(-c2cccs2)cc([C@H]2CN3CC[C@H]2C[C@@H]3COC(=O)Nc2cccc(C(F)(F)F)c2)n1` the Potency was inconclusive: 22.4 µM [inhibitor, full curve, poor fit].
In the case of `CC(C)(C)c1nc(CN2CCC3(CC2)C(=O)Nc2ccccc23)no1`, the Potency is reported as inconclusive: 70.8 µM [inhibitor, partial curve, poor fit].
For `COc1ccc(CN(Cc2ccc(OC)cc2)C[C@H]2C[C@@H]3CCN2C[C@@H]3c2cc(C3CCCC3)nn2C)cc1`, the Potency was active: 20 µM.
With `O=C(c1ccsc1)N1[C@H]2CC[C@@H]1c1cnc(-c3ccccc3)nc1C2` the Potency was “inactive”.
In the case of `CCCCCC(=O)N1C[C@H](C(=O)OCC)[C@H]2c3ccccc3N(CC3CC3)C(=O)[C@]21C`, the Potency is reported as inconclusive: 17.8 µM [inhibitor, partial curve, poor fit].
In the case of `COc1cc2c(cc1OC1CCCC1)NC(=O)C21CCN(C(=O)c2cccc(O)c2)CC1`, the Potency is reported as inconclusive: 89.1 µM [inhibitor, partial curve].
In the case of `O=C(CCc1c[nH]c2ccccc12)N1[C@H]2CC[C@@H]1c1cnc(-c3ccc(F)cc3)nc1C2`, the Potency is reported as inconclusive: 12.6 µM [inhibitor, full curve].
In the case of `N#Cc1cccc(-c2ccc(=O)n3c2[C@@H]2C[C@@H](CN(C(=O)NC4CCCCC4)C2)C3)c1`, the Potency is reported as inconclusive: 126 µM [inhibitor, single point].
In the case of `COc1ccc(C(=O)N2CCC3(CC2)c2nccn2-c2ccccc2CN3C)cc1OC`, the Potency is reported as “inactive”.
In the case of `COC1C(=O)N(CC2CC2)C12CCNCC2` (stereo unspecified), the Potency is reported as “inactive”.
For `COC[C@H]1CCCN1C[C@H]1CN2CC[C@H]1C[C@@H]2CNC(=O)Nc1ccsc1`, the Potency was inconclusive: 112 µM [inhibitor, partial curve, poor fit].
With `COc1ccc(-c2cc([C@H]3CN4CC[C@H]3C[C@@H]4CNC(=O)C(C)(C)C)nc(C)n2)cc1OC` the Potency was inconclusive: 2.24 µM [inhibitor, partial curve, poor fit].
With `COc1ccc(NC(=O)OC[C@H]2C[C@@H]3CCN2C[C@@H]3c2cc(-c3ccc(N(C)C)cc3)nc(C)n2)cc1` the Potency was active: 15.8 µM.
With `c1ccc(Nc2cc3c(cn2)CN(CC2CC2)CCN3)cc1` the Potency was inconclusive: 17.8 µM [inhibitor, partial curve, poor fit].
For `C=C[C@H]1CN2CC[C@H]1C[C@@H]2CNC(=O)C1CCCCC1`, the Potency was “inactive”.
For `CCOC(=O)[C@H]1CN(C(=O)CCc2ccccc2)[C@]2(C)C(=O)N(CC3CC3)c3ccccc3[C@H]12`, the Potency was inconclusive: 35.5 µM [inhibitor, single point].
In the case of `COCCNC(=O)[C@H]1CN2CC[C@H]1C[C@@H]2Cn1cc(-c2ccc(C(C)(C)C)cc2)nn1`, the Potency is reported as inconclusive: 89.1 µM [inhibitor, partial curve, poor fit].
With `C=C[C@H]1CN2CC[C@H]1C[C@@H]2CNCc1cccc(Cl)c1` the Potency was inconclusive: 112 µM [inhibitor, partial curve, poor fit].
In the case of `c1cc(-c2nnc(C3CNCC34CCOCC4)o2)ccn1` (stereo unspecified), the Potency is reported as “inactive”.
With `O=C(Nc1ccccc1)Nc1ccc2n(c1=O)C[C@H]1C[C@@H]2CN(C(=O)c2cccs2)C1` the Potency was inconclusive: 56.2 µM [inhibitor, partial curve, poor fit].
For `COc1cccc([C@@H]2CCN(Cc3cc4ccccc4n(C)c3=O)C[C@H]2O)c1`, the Potency was inconclusive: 50.1 µM [inhibitor, partial curve, poor fit].
In the case of `c1ccc2c3c([nH]c2c1)C1(CCNCC1)NCC3`, the Potency is reported as inconclusive: 50.1 µM [inhibitor, partial curve, poor fit].
For `O=[N+]([O-])c1cccnc1N1CC2CCC(C1)N2CC(F)(F)F`, the Potency was “inactive”.
With `CNC(=O)[C@@H]1[C@@H](c2ccccc2)CN2CCN(C(C)=O)C[C@H]12` the Potency was inconclusive: 79.4 µM [inhibitor, partial curve, poor fit].
With `COc1ccc(C(=O)N2C[C@@H]3C[C@H](C2)c2ccc(NC(=O)CN(C)C)c(=O)n2C3)cc1` the Potency was “inactive”.
With `COc1ccc(C(=O)N2C[C@@H]3C[C@H](C2)c2c(NC(=O)CSC)ccc(=O)n2C3)cc1` the Potency was “inactive”.
In the case of `Cc1nc(-c2ccccc2)cc([C@H]2CN3CC[C@H]2C[C@@H]3CNC(=O)C(C)(C)C)n1`, the Potency is reported as inconclusive: 50.1 µM [inhibitor, partial curve, poor fit].
In the case of `COc1ccc(NC(=O)N2[C@H]3CC[C@@H]2c2cnc(-c4ccc(F)cc4)nc2C3)c(OC)c1`, the Potency is reported as “inactive”.
In the case of `O=C(Cc1ccccc1)N1Cc2ccccc2CC2(CCCCN2Cc2ccccn2)C1` (stereo unspecified), the Potency is reported as inconclusive: 70.8 µM [inhibitor, single point].
For `COc1cc2c(cc1Oc1ccccc1)NC(=O)C21CCN(c2ncc(F)cn2)CC1`, the Potency was inconclusive: 56.2 µM [inhibitor, partial curve, poor fit].
In the case of `CC(C)(C)CC(=O)N1C[C@@H]2C[C@H](C1)c1ccc(NC(=O)Nc3cccc(F)c3)c(=O)n1C2`, the Potency is reported as inconclusive: 44.7 µM [inhibitor, partial curve].
In the case of `CCn1ccc(C(=O)N2CCC3(CC2)NCc2ccccc2-n2ccnc23)n1`, the Potency is reported as inconclusive: 70.8 µM [inhibitor, single point].
For `CCNC(=O)N1CCC2(CC1)c1nccn1-c1ccccc1CN2CC(C)C`, the Potency was “inactive”.
For `NC(=O)c1ccc(N2CC3CCC(C2)N3CC(F)(F)F)nn1`, the Potency was “inactive”.
For `CCCNC(=O)OC[C@H]1C[C@@H]2CCN1C[C@@H]2c1cc(C(CC)CC)nc(-c2ccncc2)n1`, the Potency was active: 39.8 µM.
In the case of `CCOC(=O)[C@H]1CN(C(=O)c2ccc(F)cc2)[C@]2(C)C(=O)N(CC3CC3)c3ccccc3[C@H]12`, the Potency is reported as inconclusive: 31.6 µM [inhibitor, partial curve, poor fit].
In the case of `Cc1nc(-c2ccc(F)cc2)cc([C@H]2CN3CC[C@H]2C[C@@H]3CNC(=O)Nc2cccc(C#N)c2)n1`, the Potency is reported as active: 22.4 µM.
With `C=C[C@H]1CN2CC[C@H]1C[C@@H]2CNC(=O)c1ccc(C(F)(F)F)cc1` the Potency was inconclusive: 126 µM [inhibitor, partial curve, poor fit].
For `COc1cc2c(cc1OCc1ccccc1)N([S+](=O)([O-])c1cccnc1)CC21CCN(C)CC1`, the Potency was active: 14.1 µM.
For `CN(C)C(=O)[C@H]1CN2CCC1C[C@@H]2Cn1cc(C2(O)CCCCC2)nn1` (stereo partly specified), the Potency was “inactive”.
For `COc1cc2c(cc1-c1cccnc1)NC(=O)C21CCN(C(C)=O)CC1`, the Potency was inconclusive: 39.8 µM [inhibitor, partial curve, poor fit].
For `O=S1(=O)NCC2(CCN(Cc3ccc(Cl)s3)C2)Oc2ncccc21` (stereo unspecified), the Potency was “inactive”.
For `COc1ccc(CC(=O)N2CCC3(C2)C(=O)Nc2ccc(OC)cc23)c(Cl)c1` (stereo unspecified), the Potency was “inactive”.
For `COc1ccccc1NC(=O)Nc1ccc2n(c1=O)C[C@H]1C[C@@H]2CN(C2CCOCC2)C1`, the Potency was “inactive”.
In the case of `O=C(NC[C@H]1C[C@@H]2CCN1C[C@@H]2CN1CCN(c2ccccn2)CC1)Nc1ccsc1`, the Potency is reported as inconclusive: 50.1 µM [inhibitor, partial curve, poor fit].
In the case of `O=C(O)c1cn(C2CCCCCC2)nn1`, the Potency is reported as “inactive”.
For `CC(=O)N1C[C@@H]2C[C@H](C1)c1ccc(NC(=O)Nc3cccc(C#N)c3)c(=O)n1C2`, the Potency was inconclusive: 100 µM [inhibitor, partial curve, poor fit].
In the case of `CCOC(=O)[C@H]1CN(C(=O)c2cc(C)oc2C)[C@]2(C)C(=O)N(CCOC)c3ccccc3[C@H]12`, the Potency is reported as inconclusive: 31.6 µM [inhibitor, partial curve, poor fit].
For `N#Cc1cccc(NC(=O)NC[C@H]2C[C@@H]3CCN2C[C@@H]3CN2CCN(c3ccc(F)cc3)CC2)c1`, the Potency was inconclusive: 79.4 µM [inhibitor, partial curve, poor fit].
